In publication PMC7819943, “Rice protein-binding microarrays: a tool to detect cis-acting elements near promoter regions in rice” one finds binding signal data, which are given here for 42 sequences.

This is one part of the list.

The test addresses T1, OsWOX13 (Oryza sativa, UniProt Q5QMM3 1-267).
T1 sequence: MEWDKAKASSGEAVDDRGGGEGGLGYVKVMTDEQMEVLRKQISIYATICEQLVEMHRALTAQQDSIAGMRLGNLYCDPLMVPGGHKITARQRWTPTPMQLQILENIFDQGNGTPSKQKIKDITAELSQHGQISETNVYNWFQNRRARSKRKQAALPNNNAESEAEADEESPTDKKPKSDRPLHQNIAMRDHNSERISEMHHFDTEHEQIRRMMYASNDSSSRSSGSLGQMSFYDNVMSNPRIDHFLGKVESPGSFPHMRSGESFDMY
Description: protein-binding microarray (RPBM); PBS, 2% BSA, 51.3 ng/ul salmon testes DNA, 50 uM zinc acetate, 200 nM TF, 25 C, 1 h; high values mean tight binding. As to conditions: protein: recombinant; tags: N-terminal polyhistidine and DsRed monomer fusion (pET32a); label: CyDye5-dUTP incorporated in the synthesized complementary strand; 3' TTTTT single-stranded linker to array surface; dsDNA, one strand shown. An outline of the steps:
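The binding signal is fluorescence intensity per array feature (arbitrary units). Readings came from an Axon 4000B scanner after a washed, 2% BSA-blocked, double-stranded custom Agilent array had been incubated for 1 h at 25 °C with 200 nM protein and 50 µM zinc acetate. The protein was a Ni–NTA-purified transcription factor fused N-terminally to polyhistidine and DsRed, expressed in E. coli BL21-CodonPlus.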
As for “TTCTCAATTTAGAGACTTAACAGCAGAAGAAAAGATGGAACGGAGTCACCTAGTGCAG”, the binding signal is 13000 fluorescence intensity (a.u.).

For the sequence “AACTAATTATTTAATTTGCAAGTACGGATGTTTACCTCAGCGGAGTCACCTAGTGCAG”, the binding signal is 35700 fluorescence intensity (a.u.).

For the sequence “GTGCAGTTTATACATTAACATGTTAATCCCACTTTACTACCGGAGTCACCTAGTGCAG”, the binding signal was 6970 fluorescence intensity (a.u.).

In the case of “CATGGCGTAATTAGACTCAAAAGATTCGTCTCGCGAATTACGGAGTCACCTAGTGCAG”, the binding signal is 6800 fluorescence intensity (a.u.).

For the sequence “CACACCATCAATCACACGTACGAGCAGTTTCCGCTTCTTTCGGAGTCACCTAGTGCAG”, the binding signal was 16700 fluorescence intensity (a.u.).

Turning to “GGATGATTATATTCTTCTTGCCTAATAAGTTGTACTTTGACGGAGTCACCTAGTGCAG”, the binding signal is 35000 fluorescence intensity (a.u.).

Turning to “AGTAATAAATTGATTGTATGTTATCTGGTGGTCTGAAACTCGGAGTCACCTAGTGCAG”, the binding signal was 57400 fluorescence intensity (a.u.).

Turning to “TTTCTTAATTTCTTAATTGTATTTCTATAAGGACTCTATACGGAGTCACCTAGTGCAG”, the binding signal is 6550 fluorescence intensity (a.u.).

“AGAAATTAATACATAGGATTTTGCAAACTCCATTTCTTTGCGGAGTCACCTAGTGCAG”: the binding signal is 3590 fluorescence intensity (a.u.).

For the sequence “AAACTAATTTCATAAATTAGAGCTAATTCGTGAGACGAATCGGAGTCACCTAGTGCAG”, the binding signal was 18900 fluorescence intensity (a.u.).

With “GTATATAATTTGTTGTGACATAATTGGATGATAGAAATATCGGAGTCACCTAGTGCAG”, the binding signal is 40600 fluorescence intensity (a.u.).

Take “CCACAAATTAATCCCTCATGCTCTTGGCATTTACCCACCACGGAGTCACCTAGTGCAG”: the binding signal is 6800 fluorescence intensity (a.u.).

As to “CTTGATTCGTCATCAAATGTTCTTTAAGCATGACATAAATCGGAGTCACCTAGTGCAG”, the binding signal was 6860 fluorescence intensity (a.u.).

With “GATATGTCCTCCTCCTACGTGGCTATATCCTTATTCTGGTCGGAGTCACCTAGTGCAG”, the binding signal is 7970 fluorescence intensity (a.u.).

Turning to “ATTCCCCTATTAATTTATGTAATAACATCTCCTTTAGAGCCGGAGTCACCTAGTGCAG”, the binding signal is 8440 fluorescence intensity (a.u.).

For the sequence “TGTTAATTTGAAATTTGGAAGATGTAATTAACTGTTGCCACGGAGTCACCTAGTGCAG”, the binding signal was 46900 fluorescence intensity (a.u.).

As for “AGGGAGTGGGGATCCGCACGAGTGGAAGCGGAGCCACGCTCGGAGTCACCTAGTGCAG”, the binding signal is 5130 fluorescence intensity (a.u.).

Take “CAGAAATTAATGGTCAAATTTAGTCTTAAAGTCATTTCTACGGAGTCACCTAGTGCAG”: the binding signal is 6670 fluorescence intensity (a.u.).

“TCATAATTATTGTTTTGACTATAGCGTTTGGATATAGGTACGGAGTCACCTAGTGCAG”: the binding signal was 24400 fluorescence intensity (a.u.).

For “GTAGAGGGATTGAGATAGATGATGACAGAGAGGGTCGGACCGGAGTCACCTAGTGCAG”, the binding signal is 3430 fluorescence intensity (a.u.).

As to “CTCGAGTCCACGCTCCCATCGCCCTCCGCCTCGCCTCGCTCGGAGTCACCTAGTGCAG”, the binding signal is 45900 fluorescence intensity (a.u.).

On to “TCAAATTGTGACAGAGATGTGTGGTTTTGTTACCATCCTTCGGAGTCACCTAGTGCAG”, for which the binding signal is 18200 fluorescence intensity (a.u.).

Turning to “TTAATGATTTAAACTCAATTATTTATATATTAATAGCTCTCGGAGTCACCTAGTGCAG”, the binding signal was 38300 fluorescence intensity (a.u.).

Turning to “TGCAAATAGATAAATACCATGTGTTTCATTTTACATTGTTCGGAGTCACCTAGTGCAG”, the binding signal was 4780 fluorescence intensity (a.u.).

Take “TCGGCGGATTGACAGGTGGAAAAGGCTGACTTCAAGTTTTCGGAGTCACCTAGTGCAG”: the binding signal was 30200 fluorescence intensity (a.u.).

As for “AGTAATTATTTAAATAATAAATTAATCATTAAATGATCTTCGGAGTCACCTAGTGCAG”, the binding signal was 27600 fluorescence intensity (a.u.).

For the sequence “CAAAGATTAGGTTCAAATTTATACTATGTTTTAACTAGGGCGGAGTCACCTAGTGCAG”, the binding signal is 17100 fluorescence intensity (a.u.).

As for “ATGTTTACAGAGTGATTTAATCATCATGATATATCTTGTTCGGAGTCACCTAGTGCAG”, the binding signal was 8940 fluorescence intensity (a.u.).

On to “AACAAATTACAGATTCCACCTATAAACTGCGAGACGGATTCGGAGTCACCTAGTGCAG”, for which the binding signal is 14700 fluorescence intensity (a.u.).

Consider “TGGTCTAATAAAATAATTAAAGATCTGATTTTCTACTCCTCGGAGTCACCTAGTGCAG”, for which the binding signal was 4320 fluorescence intensity (a.u.).

Consider “ATTTGATTATAATGAATCCAACTACATAATTTATTCATAGCGGAGTCACCTAGTGCAG”, for which the binding signal was 35600 fluorescence intensity (a.u.).

Regarding “TGTTGTGATTTGAGAATGATTATGTTGTTGTGGATGATTTCGGAGTCACCTAGTGCAG”, the binding signal is 40100 fluorescence intensity (a.u.).

Regarding “CAACTGATAATTGCAAGAACTGATTAGTGCACAGTGGATTCGGAGTCACCTAGTGCAG”, the binding signal was 28000 fluorescence intensity (a.u.).

As for “CTTAATTAGGATTCACAGCTCTTAAACGAAGAAGTAGTACCGGAGTCACCTAGTGCAG”, the binding signal is 35300 fluorescence intensity (a.u.).

In the case of “ATTAAACAAAGTGCAAATGATTGACTAATAAGAGCCCAATCGGAGTCACCTAGTGCAG”, the binding signal was 23300 fluorescence intensity (a.u.).

As for “GGGTGTGTAAGGGTAGGTGGAGGGGTGGGTGATGCGAGATCGGAGTCACCTAGTGCAG”, the binding signal was 4470 fluorescence intensity (a.u.).

As to “GTTGGCCTATTTGGAAAGGCTCTTCCCTTGCTGTGTCATCCGGAGTCACCTAGTGCAG”, the binding signal is 10100 fluorescence intensity (a.u.).

For “TTGATGTGATGGAAAAGCTAGAAGTTTCAAGAGAAAGTTGCGGAGTCACCTAGTGCAG”, the binding signal was 11000 fluorescence intensity (a.u.).

As for “ACTTAATTAATTACGTGTTAATGGACTGCTCCGTTTTCCGCGGAGTCACCTAGTGCAG”, the binding signal was 65500 fluorescence intensity (a.u.).

For the sequence “GAAATTAATTTTAATAGTGTTTTCATATTATTTCCATGCGCGGAGTCACCTAGTGCAG”, the binding signal was 46500 fluorescence intensity (a.u.).

In the case of “AGAGGCATGATTGCTCGTTATTTGTTGTTATTCAACAAGGCGGAGTCACCTAGTGCAG”, the binding signal was 29000 fluorescence intensity (a.u.).

For “TTTCTTACTAAATAAATAATTGCAACGCACTGATATTTTGCGGAGTCACCTAGTGCAG”, the binding signal was 3230 fluorescence intensity (a.u.).
